# Data taken from publication PMC4336329 (PLoS ONE, 2015).
# Among all 310,000 compounds or so, about 2,200 (0.71%) showed an effect of 50% or more. Effects have a minus sign here. The list shows a part of the results.
# Target: human ether-à-go-go-related gene (hERG) potassium channel (human, UniProt Q12809)
# Assay: primary screen, population patch clamp on CHO cells stably expressing hERG
# human ether-à-go-go-related gene (hERG) potassium channel, sequence (Q12809 whole entry, looked up): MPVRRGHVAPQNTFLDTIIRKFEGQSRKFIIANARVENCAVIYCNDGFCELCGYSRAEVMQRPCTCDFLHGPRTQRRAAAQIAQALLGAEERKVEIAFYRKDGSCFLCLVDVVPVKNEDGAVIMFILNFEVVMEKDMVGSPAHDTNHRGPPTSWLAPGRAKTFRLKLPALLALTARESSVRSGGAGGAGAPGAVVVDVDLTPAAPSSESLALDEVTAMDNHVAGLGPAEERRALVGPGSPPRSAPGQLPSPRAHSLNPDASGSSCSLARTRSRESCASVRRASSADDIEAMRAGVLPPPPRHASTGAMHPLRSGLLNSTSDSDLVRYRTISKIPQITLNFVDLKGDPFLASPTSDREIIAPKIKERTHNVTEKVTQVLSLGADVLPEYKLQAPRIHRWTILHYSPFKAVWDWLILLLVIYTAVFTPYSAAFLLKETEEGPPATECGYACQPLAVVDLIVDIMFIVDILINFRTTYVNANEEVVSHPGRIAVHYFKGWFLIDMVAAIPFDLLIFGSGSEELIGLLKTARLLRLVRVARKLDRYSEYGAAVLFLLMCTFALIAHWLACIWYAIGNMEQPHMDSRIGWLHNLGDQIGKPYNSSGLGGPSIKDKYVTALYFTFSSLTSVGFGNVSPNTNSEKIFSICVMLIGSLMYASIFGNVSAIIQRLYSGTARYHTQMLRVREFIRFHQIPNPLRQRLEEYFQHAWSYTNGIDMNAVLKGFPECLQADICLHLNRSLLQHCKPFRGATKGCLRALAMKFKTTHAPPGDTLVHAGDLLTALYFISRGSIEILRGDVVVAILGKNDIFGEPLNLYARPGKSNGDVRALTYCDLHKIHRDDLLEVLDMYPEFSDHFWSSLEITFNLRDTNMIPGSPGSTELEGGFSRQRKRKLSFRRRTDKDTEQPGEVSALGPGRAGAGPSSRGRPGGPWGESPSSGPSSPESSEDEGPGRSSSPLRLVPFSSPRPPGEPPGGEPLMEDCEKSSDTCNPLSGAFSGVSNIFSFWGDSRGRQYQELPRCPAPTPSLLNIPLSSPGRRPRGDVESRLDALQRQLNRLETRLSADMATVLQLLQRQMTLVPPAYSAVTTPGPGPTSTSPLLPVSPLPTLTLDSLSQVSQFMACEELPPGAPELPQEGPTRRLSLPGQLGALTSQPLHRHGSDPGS
row,SMILES,"hERG current change (%, negative = inhibition) at 1uM [%]"
1,Cc1cc(CN(C)Cc2c(C(=O)N3CCCCCCC3)nc3ccc(Cl)cn23)n[nH]1,3.99
2,Cc1cc(C)c2c(=O)[nH]c(SCC(=O)Nc3ccc(N(C)C)cc3)nc2n1,10.1
3,Cc1noc(NS(=O)(=O)c2ccc(NC(=O)C(F)(F)F)cc2)c1C,18.7
4,CCCn1c(SCC(=O)Nc2ccc3c(c2)CCC3)n[nH]c1=O,-2.48
5,CC(=O)NC(CC(=O)N1CCCC1)c1ccccc1 (stereo not shown),12.4
6,O=C(Nc1nnc(C2CCCCC2)s1)c1ccco1,3.58
7,CCOC(=O)c1cnc(-c2ccccc2)nc1N1CCOCC1,3.45
8,CCCn1c(C(C)Nc2nc(-c3ccc(Cl)c([N+](=O)[O-])c3)cs2)nc2cc(Cl)c(N3CCCCC3)cc21 (stereo not shown),19.3
9,Cc1cc(-c2cc(C(=O)Nc3ccccc3)on2)nc(NCC2CC2)n1,14.7
10,Cc1nc(Nc2ccccc2)sc1C(=O)c1ccccc1,12
11,O=C(CN1CCN(S(=O)(=O)c2ccc3ccccc3c2)CC1)N1CCc2ccccc2C1,10.6
12,c1ccc(-n2cnnc2SCc2cn3ccsc3n2)cc1,13
13,CC(CN1CCCCCC1)C(=O)NN (stereo not shown),14.9
14,Cc1ccc(C)c(OCC(=O)Nc2ccc(S(=O)(=O)Nc3ccccn3)cc2)c1C,9.08
15,CCCCNC(=O)COC(=O)C1CCN(S(=O)(=O)c2ccc3c(c2)OCCO3)CC1,13.1
16,COc1cccc(NC(=O)CN(C)CC(=O)Nc2ccccc2-c2ccccc2)c1,9.72
17,COc1ccc(-n2nc([N+](=O)[O-])c(=NCCCN3CCCC3=O)n2O)cc1,6.18
18,O=C(Nc1ccccc1)N1CCCN(c2nccc(C(F)(F)F)n2)CC1,2.75
19,CC(=O)NC1=NC(=O)/C(=C/c2cc(C)n(-c3ccc(NC(C)=O)cc3)c2C)S1,9.56
20,CC(=O)NC1(c2cccc(F)c2)CCN(C(=O)Nc2ccc(C#N)cc2)CC1,-0.772
21,CCN1C(=O)/C(=C\c2ccncc2)SC1=S,8.98
22,CC(C)(C)n1nc2c(c1NC(=O)c1ccccc1)CS(=O)(=O)C2,4.43

row,SMILES,"hERG current change (%, negative = inhibition) at 1uM [%]"
1,CC(C)(C)C(=O)Nc1ccc(C(=O)Nc2cc(NC(=O)c3ccc(NC(=O)C(C)(C)C)cc3)cc(C(=O)O)c2)cc1,15.1
2,O=C(CSc1nnc(CNc2ccc(F)cc2)o1)OC1CCCCC1,10.7
3,O=C(CSc1nnc2c(n1)[nH]c1ccccc12)OCc1ccccc1,13.2
4,CCCNC(=O)CSc1nnc(-c2ccccc2Br)n1-c1cccc(C(F)(F)F)c1,-0.613
5,CN(C)CCCN(C(=O)c1ccc(S(=O)(=O)N2CCCc3ccccc32)cc1)c1nc2ccc(F)cc2s1.Cl,5.2
6,COC(=O)c1ccc(S(=O)(=O)N2CCc3ccccc3C2)cc1,24.5
7,COc1ccc(S(=O)(=O)N2CCCCC2)cc1C(=O)N1CCCCCC1,11.4
8,CN(C)C(CNC(=O)C1CCN(C(=O)/C=C/c2ccccc2)CC1)c1ccccc1 (stereo not shown),11.1
9,Cc1onc(-c2ccccc2)c1C(=O)OCC(=O)N1CCC(C)CC1,0.342
10,O=C(NCc1cn2ccsc2n1)c1cccc(C(F)(F)F)c1,14.5
11,CCOC(=O)c1[nH]cnc1C(=O)Nc1ccccc1C,14.2
12,CCc1ccc(S(=O)(=O)n2c(C)nc3ccccc32)cc1,18.1
13,COc1ccc(/C=C2/SC(=O)N(CC(=O)NCCC(C)C)C2=O)cc1OC,7.05
14,Nc1[nH+]c(-c2ccc([N+](=O)[O-])cc2)cs1.[Br-],13.9
15,Cc1cccc(-c2nc3c(s2)CCc2onc(-c4ccc(Br)cc4)c2-3)c1,7.82
16,O=C(Nc1ccccc1F)N1CCCC1c1cccnc1 (stereo not shown),6.73
17,CC12CN3CC(C)(CN(C1)C3c1ccc3c(c1)OCO3)C2 (stereo not shown),15
18,Cc1ccc(C)c(NC(=O)CN(C)C(=O)c2ccccc2OCc2c(C)noc2C)c1,1.9
19,O=C(Cc1ccccc1)N/N=C/c1cccs1,11.7
20,O=C(CN(Cc1ccccc1Cl)C(=O)c1ccc(CN2CCOCC2)o1)NCc1ccccc1,-15.4
21,CCc1ccc(CN2CCC(n3nccc3NC(=O)Cc3ccccc3)CC2)o1,1.07
22,Cc1ccc(C)c(C(=O)COC(=O)CN2C(=O)C3C4C=CC(C4)C3C2=O)c1 (stereo not shown),17.8

row,SMILES,"hERG current change (%, negative = inhibition) at 1uM [%]"
1,CSc1ccc(CNCc2ccco2)cc1.Cl,7.26
2,O=c1cc(COn2nnc3ccc(C(F)(F)F)cc32)nc2sccn12,12.3
3,O=C(NC1=NCCS1)c1ccccc1Br,14.2
4,Cc1ccc(NC(=O)CSc2ncnc3ccccc23)cc1S(=O)(=O)N1CCCCC1,0.777
5,CCc1c(C)nc(SCC(=O)N2C(C)CCCC2C)[nH]c1=O (stereo not shown),20.8
6,COc1ccc(CNC(=O)c2cc(S(=O)(=O)N3CCCC3)cn2C)cc1,12.7
7,C/C(=N\NC(=O)c1ccc(Cn2cc([N+](=O)[O-])cn2)o1)c1cccc(NC(=O)c2cccnc2)c1,14
8,CCOC(=O)C1(CC2CC2)CCN(S(=O)(=O)/C=C/c2ccccc2)CC1,7.93
9,Br.COc1ccc(-c2csc(Nc3ccc(O)cc3)n2)cc1,10.5
10,COC(=O)C(NC(C)=O)(Nc1sc2c(c1C(N)=O)CCCC2)C(F)(F)F (stereo not shown),10.4
11,CN(C)C(=O)C1C2NC(=S)N(c3ccccc3)C1(C)Oc1ccccc12 (stereo not shown),2.05
12,CCCOc1ccc(Cl)cc1CN1CCOCC1.Cl,3.67
13,CCCn1c(Nc2nc3ccccc3n2C)nc2ccccc21,14.2
14,CN(C)c1ccc(C(=S)N2CCCCC2)cc1Br,14.1
15,CCOC(=O)C1CCN(C(=O)C2(NC(=O)Nc3ccccc3C)CCCCC2)CC1,18.6
16,N#Cc1c(Cn2cncn2)nc(=O)n(-c2ccccc2)c1N,16.9
17,COc1cccc(C2c3[nH]c4ccccc4c3CCN2Cc2ncc[nH]2)c1 (stereo not shown),-4.72
18,O=C1COc2ccc(S(=O)(=O)N3CCN(c4cccc(C(F)(F)F)c4)CC3)cc2N1,10.8
19,O=C(Nc1c2c(nc3c1CCC3)CCCC2)c1ccccn1,3.08
20,COc1ccc(CNC(=S)N/N=C(/C)c2ccccc2)cc1,3.45
21,COc1ccc(OCCCC(=O)Nc2cc([N+](=O)[O-])ccc2C)cc1,7.16
22,Cc1cc(C)c(S(=O)(=O)Nc2ccc[nH]c2=O)c(C)c1,6.12

row,SMILES,"hERG current change (%, negative = inhibition) at 1uM [%]"
1,Cc1ccc(CNC(=O)Cc2cccs2)cc1,13.1
2,CC(C)NC(=O)C12CC3CC(C1)CC(n1cnc(Cl)n1)(C3)C2,4.43
3,CC(C)NS(=O)(=O)c1ccc(CCC(=O)N2CCCCC2)cc1,11.5
4,Cc1cc(NS(=O)(=O)c2ccc(NC(=S)NC(=O)c3ccc(Cl)cc3Cl)cc2)no1,-5.55
5,O=C1c2c(O)cc(O)cc2O[C@H](c2ccc(O)c(O)c2)[C@@H]1O,17
6,CC(C)C[C@H]1COCCS(=O)(=O)N1Cc1cccc(C(F)(F)F)c1,5.39
7,c1ccc(-c2cnc(CSc3nnc4ccccn34)o2)cc1,7.23
8,O=C(NC1(Cc2ccccc2)CCN(CCc2cccs2)C1=O)c1ccccc1 (stereo not shown),6.99
9,Cc1ccc(S(=O)(=O)N[C@H](C(=O)N2CCC(C(=O)N[C@@H](CCC(N)=O)C(=O)O)CC2)C(C)C)cc1,10.6
10,C/C(=N\OCc1ccc(C#N)cc1)c1cc2ccccc2o1,2.29
11,CC(NC(=O)c1ccccc1)C(=O)NC1=NCCS1 (stereo not shown),6.66
12,CCCN1C(=O)c2cc(C(=O)Nc3ccccc3C)ccc2C1Nc1ccccc1C (stereo not shown),10.3
13,CCN(/C=N/c1sc2c(c1C#N)CC(C)(C)NC2(C)C)CC,20.8
14,O=C(N/N=C/c1ccccn1)c1cc(-c2ccccc2)nc2ccccc12,2.19
15,CCOC(=O)c1ccc(S(=O)(=O)NCC(c2ccc(N(C)C)cc2)c2c[nH]c3ccccc23)cc1 (stereo not shown),9.97
16,O=C(NCCc1ccccn1)c1nc(Cn2cc([N+](=O)[O-])cn2)no1,10
17,O=C(Cn1c(=O)c(=O)n(Cc2ccccc2)c2ccc(Cl)cc21)Nc1cc(F)ccc1F,1.47
18,COc1ccc(N/N=C(/C(C)=O)N2CCCc3ccccc32)cc1,6.79
19,CNC(C)C#Cc1c(-c2cc(OC)c(OC)c(OC)c2)noc1C (stereo not shown),6.63
20,O=S1(=O)CCC(NC(=S)Nc2ccc3ccccc3c2)C1 (stereo not shown),11.6
21,COc1cccc(CN2CCN(Cc3cccn3-c3cccnc3)CC2CCO)c1 (stereo not shown),-62.2
22,O=C(O)C1=C[C@@H](c2ccc(F)cc2)C[C@@H](OCCCCO)O1,11.2
